Measurements as given in PubChem BioAssay (NCATS).
The inconclusive results got no clear call from the source; some entries with a clear call stand among them for comparison. A potency beside an inconclusive call is a rough fit, not a confirmed value. For part of these data: “Side channel” marks fits to a control or component signal instead of the main read-out. Calls of active or inactive are those of the source. Unless noted, calls follow the shape of the dose curve; as a rule, active = well fitted activation curve with a large enough effect; inconclusive = small, poorly fitted or top-dose-only effect, or effect the other way; inactive = flat fitted curve, though single readings scatter.

Experiment: qHTS Assay for Identification of Small Molecule Agonists for Hypoxia Response Element Signaling Pathway (AID 914; active = well fitted activation curve with a large enough effect in the signal ratio, with a control signal flat, not every such curve was filed as active; inconclusive = small, poorly fitted or top-dose-only effect, or effect the other way, or a change in a side signal; the % refers to the signal ratio; as to activation: top concentration of the series differs between compounds; % of control where 0% means no effect)
Conditions: ME-180 (cervical carcinoma) HRE-bla reporter, beta-lactamase ratio, CoCl2, 17 h; activation: hits give high values
How it was run: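 A beta-lactamase reporter under hypoxia response element control in ME-180 cells served as the system. Compound titrations plus EC50 CoCl2 ran 17 h at 37 degrees Celsius; AC50 values were fitted from %Activity.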
Potency is read from the fitted curve at half-maximal effect; tags tell the direction and shape of the fitted curve or compound fluorescence and quenching.

| SMILES | Potency | activation |
| --- | --- | --- |
| Nc1nc(F)nc2c1ncn2[C@@H]1O[C@H](CO)[C@@H](O)[C@@H]1O | inconclusive: 6.31 µM [inhibitor, partial curve] |  |
| NCCP(=O)(O)O |  | inactive: 0.635% |
| C=C(C)[C@H]1CC[C@]2(C(=O)O)CC[C@]3(C)[C@@H](CC[C@H]4[C@@]5(C)CC[C@@H](O)C(C)(C)[C@@H]5CC[C@@]43C)[C@H]12 | inconclusive: 12.6 µM [cytotoxic, side channel, single point] |  |
| CC1(C)CC(n2[nH]c(=O)c3c2NC(=O)CSC3c2ccccc2)CCO1 (stereo not drawn) |  | inactive: 18.8% |
| NC(=O)c1ccc(C(=O)Nc2ccc([As](=O)(O)O)cc2)cc1 |  | inconclusive: 6.1% |
| O=C(CN1CCN(CCO)CC1)Nc1ccc(Cl)cc1C(=O)c1ccccc1 |  | inactive: 0.98% |
| COc1cc2c(c(OC)c1OC)-c1ccc(OC)c(=O)cc1[C@H](NC(C)=O)CC2 | inconclusive: 0.199 µM [inhibitor, full curve] | inconclusive: -29.9% |
| O=S(=O)(O)/C(=C\c1ccccc1)c1ccccc1 (tested in a mixture with another compound) |  | inconclusive: -3.3% |
| Nc1c(Br)cc(Br)cc1CNC1CCC(O)CC1 (stereo not drawn) | inconclusive: 12.6 µM [inhibitor, single point] |  |
| NCCc1ccc(S(=O)(=O)O)cc1[N+](=O)[O-] |  | inconclusive: -6.12% |
| CC(C)Cc1[nH]c(=O)c(C#N)c2c1CCC2 | inconclusive: 10 µM [inhibitor, single point] |  |
| CCCOC(=O)[C@@H]1[C@@H](C(=O)O)[C@H]2CC[C@@H]1O2 |  | inconclusive: -1.27% |
| O=C(O)[C@H](Cc1cnc[nH]1)N1C(=O)c2ccccc2C1=O | inconclusive: 0.199 µM [activator, single point] |  |

Experiment: qHTS Assay for Identification of Small Molecule Agonists for Thrombopoietin (TPO) Signaling Pathway (AID 917)
Conditions: TPO signaling pathway reporter cells, agonist qHTS; Potency: stimulated with TPO at its EC50 unless noted; activity, positive = activation: at 38.5 µM (top of the series) unless noted
How it was run: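 Quantitative HTS for pathway activators: compounds were pin-transferred onto IL-3-starved Ba/F3 cells expressing human TPO receptor, TPO was added at its EC50 (26 pM final), and after 24 hrs at 37 C reporter luciferase was measured.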

| SMILES | Potency |
| --- | --- |
| CC(C)C[C@H]1C(=O)N2CCC[C@@H]2[C@]2(O)O[C@](NC(=O)[C@H]3C=C4c5cccc6[nH]c(Br)c(c56)C[C@H]4N(C)C3)(C(C)C)C(=O)N12 | inconclusive: 0.004 µM [inhibitor, full curve, poor fit] |
| COc1ccc2c(c1)CCC1C2CC[C@]2(C)[C@H](NCCCCCCN3C(=O)C=CC3=O)CC[C@@H]12 (stereo partly drawn) | inconclusive: 2 µM [inhibitor, full curve] |
| O=C(O)[C@H]1[C@H](C(=O)O)[C@H]2CC[C@@H]1O2 | inconclusive: 10 µM [inhibitor, partial curve] |
| CC[C@@H]1CN2CCc3cc(OC)c(OC)cc3[C@H]2C[C@@H]1C[C@@H]1NCCc2cc(OC)c(OC)cc21 | inconclusive: 63.1 nM [inhibitor, full curve] [setting not given] |
